# Experimental data taken from paper PMC4336329 (PLoS ONE, 2015).
# The whole screen tested about 310,000 compounds, of which about 2,200 (0.71%) showed an effect of 50% or more. The effect is printed as a negative number. Some of the results follow.
# Target: human ether-à-go-go-related gene (hERG) potassium channel (human, UniProt Q12809)
# Assay: primary screen, population patch clamp on CHO cells stably expressing hERG
# Chain of human ether-à-go-go-related gene (hERG) potassium channel (Q12809 whole entry, looked up): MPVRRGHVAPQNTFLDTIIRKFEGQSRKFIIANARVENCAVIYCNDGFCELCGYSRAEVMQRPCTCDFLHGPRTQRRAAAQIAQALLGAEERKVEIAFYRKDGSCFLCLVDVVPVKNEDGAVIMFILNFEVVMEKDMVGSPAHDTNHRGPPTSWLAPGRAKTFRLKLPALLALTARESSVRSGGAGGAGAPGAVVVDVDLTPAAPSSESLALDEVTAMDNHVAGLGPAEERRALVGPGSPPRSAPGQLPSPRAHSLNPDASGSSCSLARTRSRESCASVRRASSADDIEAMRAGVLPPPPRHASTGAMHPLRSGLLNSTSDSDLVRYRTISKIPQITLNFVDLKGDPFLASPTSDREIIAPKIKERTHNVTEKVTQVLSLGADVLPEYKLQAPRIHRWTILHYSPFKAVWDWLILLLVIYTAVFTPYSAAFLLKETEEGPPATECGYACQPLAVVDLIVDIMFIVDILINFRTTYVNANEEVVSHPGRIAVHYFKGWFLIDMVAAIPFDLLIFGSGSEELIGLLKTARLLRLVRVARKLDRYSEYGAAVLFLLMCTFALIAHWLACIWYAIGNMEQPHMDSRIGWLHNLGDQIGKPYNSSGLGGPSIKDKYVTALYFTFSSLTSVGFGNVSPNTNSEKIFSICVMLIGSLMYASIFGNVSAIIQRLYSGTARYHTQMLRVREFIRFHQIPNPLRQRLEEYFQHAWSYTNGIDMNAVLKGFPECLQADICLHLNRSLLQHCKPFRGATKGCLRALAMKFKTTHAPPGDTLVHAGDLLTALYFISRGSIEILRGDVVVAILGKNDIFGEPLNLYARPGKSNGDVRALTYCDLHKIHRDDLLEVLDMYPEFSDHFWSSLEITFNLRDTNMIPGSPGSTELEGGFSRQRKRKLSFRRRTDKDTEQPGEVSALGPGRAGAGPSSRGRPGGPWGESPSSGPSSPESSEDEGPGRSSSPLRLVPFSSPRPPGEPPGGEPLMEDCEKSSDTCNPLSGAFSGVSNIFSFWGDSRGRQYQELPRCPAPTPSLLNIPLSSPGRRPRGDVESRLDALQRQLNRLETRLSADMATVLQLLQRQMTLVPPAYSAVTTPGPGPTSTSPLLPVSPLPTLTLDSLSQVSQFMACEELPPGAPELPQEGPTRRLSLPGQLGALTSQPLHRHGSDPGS
row,SMILES,"hERG current change (%, negative = inhibition) at 1uM"
1,CCN(CC)c1nc(N)c2c(N)nc(OC)cc2c1C#N,2.34%
2,O=C(O)CCc1ccc(-c2ccc(F)cc2)n1Cc1ccco1,8.19%
3,Nc1nonc1-n1nnc(C(=O)N/N=C/c2cccc(Cl)c2)c1CN1CCCCCC1,18.9%
4,O=S(=O)(Nc1nccs1)c1ccc(NS(=O)(=O)c2cccs2)cc1,16.6%
5,O=C(Nc1cc(Cl)ccc1-n1cncn1)c1cn2ccccc2n1,9.61%
6,CSc1ncc(Cl)c(C(=O)NCc2ccc3c(c2)OCO3)n1,5.83%
7,Cc1cccc(NC(=O)CN(C)S(=O)(=O)c2cnc[nH]2)c1,12.9%
8,CCOCCCNC(=O)C1CCN(S(=O)(=O)c2c(C)noc2/C=C\c2ccc(OC)cc2)CC1,8.17%
9,CC(C)Cc1nnc(NS(C)(=O)=O)s1,20%
10,O=S(=O)(NC1CC1)c1ccc(S(=O)(=O)N2CCCC(c3nc(-c4cccnc4)no3)C2)cc1 (stereo not shown),-6.69%
11,CC1(C)Cc2c(sc3nc(C4CC4)n(N)c(=O)c23)CO1,13.6%
12,CCCn1c(SCC(=O)N2CCCc3ccccc32)nnc1-c1ccccn1,2.64%
13,Cc1cc(C)cc(NC(=O)CCN2C(=O)c3ccccc3S2(=O)=O)c1,10.5%
14,Cn1c(C(=O)OC(C(=O)NC2CCCCC2)c2cccnc2)cc2sccc21 (stereo not shown),7.83%
15,CC(C)NC(=O)NC(=O)CSc1nnc(COc2ccccc2F)n1C(C)C1CC2CCC1C2 (stereo not shown),2.19%
16,Cn1c(=O)c2c(nc(NN=C3CCCCC3)n2C)n(C)c1=O,15.6%
17,CCCCNC(=O)C1CCN(S(=O)(=O)N2CCOCC2)CC1,9.05%
18,CSc1cccc(CN2CCCC(CNC(=O)c3ccc(F)cc3)C2)c1 (stereo not shown),-19.1%
19,CN(C)C(=C(C#N)C#N)N1CCN(c2ccc(Cl)cc2)CC1,-16%
20,CCCCn1c(=O)[nH]c(=O)c2c1nc(CN1C(=O)c3ccccc3S1(=O)=O)n2CCC,-7.61%
21,CCn1cnc2cc(NCc3cccc(OC)c3O)ccc21,8.76%
22,Cc1cc(Cl)c2oc(C(=O)N(C)C(C)c3ccccn3)c(C)c2c1 (stereo not shown),4.49%

row,SMILES,"hERG current change (%, negative = inhibition) at 1uM"
1,c1ccc(Oc2nc(-c3cccnc3)nc3ccccc23)cc1,13.3%
2,COC(=O)c1ccc(NC(=O)CSc2nncc3ccc(OC)c(OC)c23)cc1,1.77%
3,COc1ccc(OC)c(NC(=O)c2ccc(NC(C)=O)cc2)c1,1.26%
4,CSc1cccc(CNC(=O)C2CCC(=O)N(Cc3cccc(C(F)(F)F)c3)C2)c1 (stereo not shown),12.3%
5,CC(=O)Nc1ccc(S(=O)(=O)C(C#N)c2nc3ccccc3nc2NCCN2CCOCC2)cc1 (stereo not shown),6.76%
6,Cc1ccccc1NC(=O)CSCC(=O)Nc1ccccc1C,5.46%
7,O=C(c1cccnc1)N1CCN(C(=O)c2ccccc2F)CC1,-11.4%
8,COc1ccccc1OCCCn1c(C)c(C#N)c2ccccc21,15.1%
9,Cc1cc2c(cc1S(=O)(=O)N1CCOCC1)NC(=O)CO2,15%
10,CCCCCN(C(=O)NC(=O)Nc1nncs1)S(C)(=O)=O,14.6%
11,COC(=O)C1=C(c2cccc(Cl)c2)C[C@@H]2CC[C@H]1N2C(=O)N1CCCC1,9.41%
12,O=c1c2ccccc2[nH]c(=S)n1CCN1CCCCC1,6.61%
13,Cc1ccc(N2C(=O)C3C(C2=O)C(C(=O)c2ccc(Cl)cc2)N2CCCC32)cc1 (stereo not shown),14.3%
14,COc1cc(/C=N/NC(=O)c2ccc(CN(C)S(=O)(=O)c3ccc(C)cc3)cc2)ccc1O,12.6%
15,Clc1nc2sccn2c1/C=N/n1cnc2ccccc21,9.25%
16,COc1ccc(C(=O)NC(=S)Nc2ccc(S(N)(=O)=O)cc2)cc1,10.5%
17,Cc1cccc(C)c1N=C1SC(CC(=O)Nc2c(C)cccc2C)C(=O)N1CCc1ccccn1 (stereo not shown),11.5%
18,CCOC(=O)N1CCN(C(=S)NC2CCCC2)CC1,8.85%
19,CCCC(=O)Nc1nc(CC(=O)OCC)cs1,0.595%
20,N#CCSc1ncnc2c1cnn2CCO,18.2%
21,Cc1ccc(C(C(=O)NCC2CCCO2)N(C(=O)c2snc(C(N)=O)c2N)c2ccc(F)cc2)o1 (stereo not shown),12.7%
22,CCc1ccc(OCC(=O)OCC(=O)c2c(N)n(C)c(=O)n(C)c2=O)cc1,7.79%

row,SMILES,"hERG current change (%, negative = inhibition) at 1uM"
1,O=C1c2ccccc2S(=O)(=O)c2cc(N3CCC4(CC3)OCCO4)ccc21,6.65%
2,COc1cc(NC(=O)c2cccs2)c(C(=O)OCC(=O)c2cc(C)n(-c3ccccc3)c2C)cc1OC,8.11%
3,Cc1ccc(S(=O)(=O)Nc2cc3c(cc2C#N)OCO3)cc1C(N)=O,11.4%
4,CC(=O)Nc1ccc(NC(=O)C(C)O/N=C/c2cccc([N+](=O)[O-])c2)cc1 (stereo not shown),-8.51%
5,Cc1onc(-c2c(F)cccc2Cl)c1-c1nnc(-c2cccc3ccccc23)o1,8.69%
6,Cn1c(SCC(=O)NC2CCCCC2)nnc1-c1cccnc1,7.51%
7,CC(NC(=O)c1ccc(OC2CCN(S(=O)(=O)N(C)C)CC2)cc1)C1CC1 (stereo not shown),8.82%
8,Cc1ccc(N(CC(=O)NC2CCCCC2)S(=O)(=O)c2c(C)nn(C)c2C)cc1,13.5%
9,Cc1nn(C(=O)CCC(=O)NCCc2ccccc2)c2ccccc12,19.9%
10,Cc1ccc(C)c(OCC(O)CN2CCC(Cc3ccccc3)CC2)c1.Cl (stereo not shown),-43.1%
11,CCCc1cc(=O)[nH]c2nnc(SCC(=O)Nc3ccc(C(C)=O)cc3)n12,3.67%
12,C/C(CC(C)C)=N/Nc1ccc([N+](=O)[O-])cc1[N+](=O)[O-],9.93%
13,CCCc1cc(=O)n2[nH]c(SCc3ccc(Cl)cc3)nc2n1,15.5%
14,COc1ccccc1NC(=O)C1CCN(C(=O)c2ccc(C(C)(C)C)cc2)CC1,6.81%
15,Cc1cccc(S(=O)(=O)Nc2nc3ccccc3nc2Nc2cccc(C(=O)O)c2)c1,11.2%
16,CCn1c(C)nc2cc(S(=O)(=O)C(F)F)ccc21,-10.2%
17,COc1ccccc1CNC(=O)Cn1cnnn1,12.8%
18,COc1ccc(C2=NOC(C(=O)NCc3cccs3)C2)cc1 (stereo not shown),21.3%
19,O=C(NCc1nnc(SCC(=O)N2CCCC2)o1)c1c(F)cccc1Cl,10.4%
20,O=C1C(Cl)=C(NC(=O)c2ccccc2)C(=O)C(Cl)=C1NC(=O)c1ccccc1,11.1%
21,CCNC(=S)NCCN1CCCCC1.Cl,13.2%
22,Cc1cccc(C)c1NC(=O)CNC(=O)c1c(-c2ccccc2)noc1C,12.8%

row,SMILES,"hERG current change (%, negative = inhibition) at 1uM"
1,C=CCn1c(Oc2cccc(C)c2)nc2c1c(=O)n(C)c(=O)n2C,10.4%
2,O=C(Cc1ccccc1)Nc1ccc(C(=O)Nc2ccccc2C(=O)O)cc1,10.4%
3,COc1ccc(C)cc1S(=O)(=O)N(CC(=O)Nc1cccc([N+](=O)[O-])c1)c1ccc(C)cc1,24.6%
4,N#Cc1ccccc1Cn1cc(/C=C/[N+](=O)[O-])c2ccccc21,7.33%
5,N#CC(CO)(Cc1ccc(OC(F)F)cc1)c1nc2ccccc2[nH]1 (stereo not shown),-12.6%
6,O=C(CSc1nnnn1-c1ccc(F)cc1)NC1CCCCC1,8.15%
7,COc1ccc(C(=O)c2ccccc2)c(OCC(=O)N(C)C)c1,9.13%
8,NC(=O)N/N=C/c1cn(-c2ccccc2)nc1-c1cccs1,0.318%
9,O=C(Nc1ccccc1)c1ccc2snnc2c1,13.8%
10,Cc1ccccc1CNCCCSc1ncccn1.Cl,24.7%
11,CCN1/C(=C/c2ccc3cc(C)ccc3[n+]2CC)Sc2ccccc21.[I-],-100%
12,CS(=O)(=O)N(CC(=O)Nc1ccc(Br)cc1F)C1CCCCC1,7.23%
13,CCOC(=O)C1CCCN(c2c(Nc3ccc(OCC)cc3)c(=O)c2=O)C1 (stereo not shown),5.74%
14,O=C(CSc1cccc[n+]1[O-])Nc1ccc([N+](=O)[O-])cc1Cl,21.8%
15,O=C(NCC(=O)N1CCN(c2ncc(C(F)(F)F)cc2Cl)CC1)c1ccc(Br)o1,-7.25%
16,Cc1nc(SCCC(=O)O)c2ccccc2n1,9.28%
17,COC(=O)C1C(=O)C2=C(CC1C)Nc1ccccc1NC2c1cccs1 (stereo not shown),6.57%
18,COc1cc(/C=C(/C#N)C(=O)NCCc2c[nH]c3ccccc23)ccc1OCc1ccccc1F,14.7%
19,Cc1nn(-c2ccccc2)c(C)c1NC(=O)COC(=O)c1ccc(S(=O)(=O)C(F)F)cc1,-0.894%
20,c1ccc(OCCOCCN2CCOCC2)cc1,7.17%
21,Cc1ccc(NS(=O)(=O)c2ccc(-n3cccn3)cc2)nc1,17.2%
22,Cn1c(OCc2cccnc2)nc2c1c(=O)n(Cc1ccccc1)c(=O)n2C,-14.4%
